# From publication PMC4336329 (PLoS ONE, 2015)
# The whole screen tested about 310,000 compounds, of which about 2,200 (0.71%) showed an effect of 50% or more. Effects have a minus sign here. This is one part of the list.
# Biological target: human ether-à-go-go-related gene (hERG) potassium channel (human, UniProt Q12809)
# Assay: primary screen, population patch clamp on CHO cells stably expressing hERG
# Chain of human ether-à-go-go-related gene (hERG) potassium channel (Q12809 whole entry, looked up): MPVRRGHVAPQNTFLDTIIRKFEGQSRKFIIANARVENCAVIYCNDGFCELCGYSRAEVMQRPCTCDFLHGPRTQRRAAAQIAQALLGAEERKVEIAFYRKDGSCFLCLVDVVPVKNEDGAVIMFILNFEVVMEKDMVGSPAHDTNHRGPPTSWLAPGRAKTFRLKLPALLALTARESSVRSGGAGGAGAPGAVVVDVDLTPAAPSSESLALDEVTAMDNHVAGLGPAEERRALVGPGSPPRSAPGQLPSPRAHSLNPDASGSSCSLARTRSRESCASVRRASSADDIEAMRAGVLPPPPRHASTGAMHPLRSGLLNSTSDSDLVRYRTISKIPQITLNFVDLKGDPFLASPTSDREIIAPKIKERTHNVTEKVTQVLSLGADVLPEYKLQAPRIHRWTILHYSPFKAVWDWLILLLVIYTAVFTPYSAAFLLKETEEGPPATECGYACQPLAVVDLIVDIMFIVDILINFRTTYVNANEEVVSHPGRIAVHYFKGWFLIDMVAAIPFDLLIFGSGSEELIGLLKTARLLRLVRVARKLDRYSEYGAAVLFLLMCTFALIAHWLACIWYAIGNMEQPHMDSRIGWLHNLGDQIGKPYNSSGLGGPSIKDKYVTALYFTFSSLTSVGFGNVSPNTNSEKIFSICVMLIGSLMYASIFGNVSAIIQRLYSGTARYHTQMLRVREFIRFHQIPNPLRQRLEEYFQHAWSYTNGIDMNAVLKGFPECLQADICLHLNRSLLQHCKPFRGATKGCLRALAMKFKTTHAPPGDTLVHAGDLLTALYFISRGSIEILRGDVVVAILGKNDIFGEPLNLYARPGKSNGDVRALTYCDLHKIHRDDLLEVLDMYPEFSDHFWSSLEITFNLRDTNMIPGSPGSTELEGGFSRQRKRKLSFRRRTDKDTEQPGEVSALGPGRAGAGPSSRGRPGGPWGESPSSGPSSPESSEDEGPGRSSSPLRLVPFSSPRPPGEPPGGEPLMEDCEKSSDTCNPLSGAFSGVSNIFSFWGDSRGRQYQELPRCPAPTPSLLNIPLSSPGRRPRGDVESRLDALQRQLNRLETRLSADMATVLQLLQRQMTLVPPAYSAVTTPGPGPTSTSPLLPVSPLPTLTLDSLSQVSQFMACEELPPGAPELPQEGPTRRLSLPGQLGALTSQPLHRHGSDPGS
row,Structure (SMILES),"hERG current change (%, negative = inhibition) at 1uM [%]"
1,O=C(Nc1ccccc1)c1cccc(S(=O)(=O)NCc2ccco2)c1,8.41
2,CCOc1ccc(CC2S/C(=N/N=C/c3ccco3)NC2=O)cc1 (stereo not drawn),17.5
3,OCCN=C1CCCc2c1[nH]c1ccc(Br)cc21,12.4
4,Cc1ccc(NC(=O)COS(=O)c2ccc(C)cc2)cc1 (stereo not drawn),-1.55
5,CN(C(=O)COC(=O)c1ccc(-c2ccc(O)cc2)cc1)C1CCS(=O)(=O)C1 (stereo not drawn),2.61
6,COc1ccc(-c2nc(-n3c(C)c(C(C)=O)c(C(C)=O)c3C)sc2C)cc1OC,9.81
7,CC(=O)N1c2ccc(S(=O)(=O)N3CCC(C(=O)Nc4ccccn4)CC3)cc2CC1C (stereo not drawn),17.6
8,CCOCCCNC(=O)C1CCCN1C(=O)Nc1ccccc1[N+](=O)[O-] (stereo not drawn),9.35
9,CC(=O)OC1C2CCCC1C([NH+]1CCCC1)CC2.[Cl-] (stereo not drawn),5.02
10,CCOc1cc(Br)c(CN2C(=O)NC3(CCCCCC3)C2=O)cc1OCC,10.7
11,COc1ccc(/C=N/OC/C(O)=C(\C#N)c2nc3ccccc3[nH]2)cc1OC,-0.932
12,CCCCNC(=O)c1onc(CSc2cccc(OC)c2)c1C(=O)NCCCC,6.46
13,COc1ccc2c3n([n+]([O-])c2c1)CCN=C3c1ccc(C)cc1,7.29
14,CCCn1c(C(CO)Nc2nc(-c3cccc(Br)c3)cs2)nc2ccccc21 (stereo not drawn),4.28
15,O=C(c1ccc(Cl)c(NC2=NC3CS(=O)(=O)CC3S2)c1)N1CCN(c2ccc(F)cc2)CC1 (stereo not drawn),13.8
16,COc1ccccc1C(=O)Nc1cc(Cl)ccc1O,7.76
17,COc1ccc(-n2nc3cc(C)c(N)c(Br)c3n2)cc1,13.2
18,Fc1cccc2sc(N3CCCCC3)nc12,8.11
19,CCOc1ccc(NC(=O)N2CCN(C(=O)c3ccco3)CC2)cc1,5.4
20,O=c1[nH]nc(Cc2ccc(-c3ccccc3Cl)o2)c2ccccc12,5.09
21,COc1ccc(C(NC(=O)CNC(C)=O)C(=O)Nc2ccc(C(C)C)cc2)cc1 (stereo not drawn),3.85
22,O=C1C(=O)N(CCS(=O)(=O)c2ccccc2)c2ccccc21,18.3

row,Structure (SMILES),"hERG current change (%, negative = inhibition) at 1uM [%]"
1,O=C(C1CCCN(S(=O)(=O)c2cc(Cl)ccc2Cl)C1)N1CCCCCC1 (stereo not drawn),-7.58
2,O=C(N/N=C/c1ccc(O)c(O)c1)C1c2ccccc2Oc2ccccc21,1.26
3,CCOC(=O)C(Cc1c(F)cccc1F)(NC(C)=O)C(=O)OCC,8.71
4,COc1cc(C(=O)N2CCC(NC(=O)C(Cc3ccc(C(C)C)cc3)NC(C)=O)CC2)cc(OC)c1OC (stereo not drawn),1.91
5,CCC1CCCCN1CCCNC(=O)c1cn(CC(C)C)c(=O)c2cc(OC)c(OC)cc12 (stereo not drawn),6.03
6,COC(=O)C1=C(CN2CCc3ccccc32)NC(=O)NC1c1cc(C)ccc1C (stereo not drawn),-6.29
7,CN1CCC(C(=O)N2CCCC(C(=O)c3ccc4c5c(cccc35)CC4)C2)CC1 (stereo not drawn),-24.8
8,COc1ccc(C2/C(=C(/O)c3ccccc3)C(=O)C(=O)N2CCCN2CCOCC2)cc1 (stereo not drawn),23.1
9,Oc1ccc2ccccc2c1C=Nc1ccccc1-c1nc2ccccc2[nH]1,-4.13
10,O=C1CC(C2CCCO2)C(=O)N1c1ccc(Cl)c(Cl)c1 (stereo not drawn),7.37
11,CCN(CC)c1ccc(C=Nc2ccc(N(C)C)cc2)c(O)c1,14.9
12,Cc1ccc(/C=C/C(=O)NC(=S)N2CCN(c3ccc(F)cc3)CC2)cc1,7.26
13,COc1cccc(N2[C@@H](CC(=O)O)c3ccc(/C=C/C(=O)O)cc3S2(=O)=O)c1,17.1
14,Cc1cc(C)n2nc(-c3ccsc3-n3c(C)ccc3C)cc2n1,10.4
15,Cc1ccc(S(=O)(=O)/N=C(\N)c2ccc(F)cc2)cc1,8.91
16,Cc1ccc(S(=O)(=O)N(C)/C(=N/S(=O)(=O)c2ccccc2)c2ccccc2)cc1,0.195
17,Cc1c(C(C)O)nnn1-c1nonc1N (stereo not drawn),7.21
18,CCOC(=O)C1=NOC(COc2ccccc2C=O)C1 (stereo not drawn),-2.95
19,CCOC(=O)c1cc2cc(C)ccc2[nH]1,5.92
20,C=CCN1N=C(/C=C/c2ccccc2)CCC1=O,8.49
21,O=C(Nc1ccc2c(c1)OCO2)c1ccc(Br)o1,9.54
22,CCOc1ccc2nc(NC(=O)CSc3nnnn3C3CCCCC3)sc2c1,3.87

row,Structure (SMILES),"hERG current change (%, negative = inhibition) at 1uM [%]"
1,NS(=O)(=O)c1ccc(CCNC(=O)CN2CCN(c3ccccc3F)CC2)cc1,12.7
2,COc1ccc(/C=C/C(=O)NC(C)(C)C)cc1S(=O)(=O)N1CCOCC1,-0.362
3,CCOC(=O)N1CCN(c2c(NCCN(C)Cc3ccccc3)c(=O)c2=O)CC1,8.5
4,Cc1ccc(NC(=O)c2sccc2-n2cccc2)c(Cl)c1,6.75
5,[Br-].c1cnc(N2CC[N+]3(CCCC3)CC2)nc1,6.62
6,O=C1/C(=C\c2cccc([N+](=O)[O-])c2O)SC(=S)N1Cc1ccccc1,28.6
7,C[C@]12CC[C@H](O)C[C@H]1CC[C@@H]1[C@@H]2CC[C@]2(C)[C@@H](C3=CC(=O)OC3)CC[C@]12O,17.2
8,COC(=O)c1ccc(OCCN2CCCCCC2)cc1.O=C(O)C(=O)O,7.77
9,Cc1cc(C)c2[nH]c(C(=O)Nc3ccc4c(c3)OCO4)cc2c1,12.3
10,OCCC1CN(Cc2cccc3nccnc23)CCN1Cc1ccc(F)cc1 (stereo not drawn),-7.96
11,CN(C)c1nc(SCc2ccc(Cl)cc2)nc2c1CCCC2,12.7
12,COc1ccc(N2CCN(c3nc(-c4cccs4)nc4ccccc34)CC2)cc1,15
13,CCn1c(CCC(N)=O)nnc1SCC(=O)c1cc(C)n(C2CC2)c1C,-0.521
14,O=C(CSc1nnc(SCc2ccc(Cl)cc2)s1)N/N=C/c1ccc(C(=O)O)cc1,21.5
15,O=S(=O)(/N=C(/Nc1ccc(F)cc1F)c1ccccc1)c1ccccc1,-3.06
16,CCOC(=O)CN(C(=O)CCC(=O)Nc1cc(C)on1)C(C(=O)NC1CCCC1)c1cccnc1 (stereo not drawn),2.22
17,Cc1ccc(O)c(NC(=O)C2=CC(c3ccco3)=NS(=O)(=O)N2C)c1,3.41
18,O=C(NC1CCN(C(=O)Nc2cccc(F)c2)CC1)C1CCCCC1,6.99
19,C[C@H](NC(N)=O)C(=O)N1CCN(S(=O)(=O)c2ccc3ccccc3c2)CC1,-40.6
20,CC1C=CCC2C(=O)N(c3cccc(C(=O)Nc4ccc(F)cc4)c3)C(=O)C12 (stereo not drawn),9.38
21,CCOC(=O)C1C(c2ccccc2)C(C(=O)OCC)S(=O)(=O)C(CCN(CC)CC)S1(=O)=O (stereo not drawn),7.2
22,CN1CCCN(C(=O)c2c(F)cccc2Cl)CC1,21.5

row,Structure (SMILES),"hERG current change (%, negative = inhibition) at 1uM [%]"
1,CCCCc1ccc(NC(=O)c2c(C)noc2C)cc1,7.48
2,O=C(Nc1ccc(OCc2ccccc2)cc1)Nc1cccnc1,12
3,Cc1ccccc1OCc1nc(-c2ccc(NC(=O)c3cccs3)cc2)no1,10.4
4,COc1cccc(CC(=O)Nc2ccc3nc(C)sc3c2)c1,13.3
5,CCOC(=O)COc1ccc(S(=O)(=O)N2CCN(c3ccc(OC)cc3)CC2)cc1,2.93
6,CSc1cccc(NC(=O)N2CCCC(CNS(=O)(=O)Cc3ccccc3)C2)c1 (stereo not drawn),8.43
7,CC(=O)NC(Cc1cc(C)ccc1C)C(=O)N1CCN(C(=O)c2ccc([N+](=O)[O-])cc2)CC1 (stereo not drawn),10.8
8,O=C(CSc1ncn(-c2ccccc2)n1)Nc1nc(-c2ccccc2)cs1,10.1
9,COc1ccc(OCCOC(=O)CNC(=O)c2cccc(C)c2)cc1,4.51
10,O=C(O)c1cccc(-c2ccc(/C=N/n3cnnc3)o2)c1,11.4
11,O=S(=O)(NCc1ccc2c(c1)OCO2)c1ccc2oc3ccccc3c2c1,-7.24
12,O=C(Nc1ccc2c(c1)OCCO2)c1ccc(Br)cc1,0.007
13,COc1ccc(NC(=O)C2CCN(c3cnccn3)CC2)cc1OC,11.9
14,COc1ccc2c(c1)[C@H]1[C@H](CO2)[C@H](c2ccccc2)[C@]2(C)C(=O)Nc3ccccc3C(=O)N12,-6.64
15,Cc1cc(NC(=O)CCN2CCN(CCO)CC2)ccc1Br.Cl,14.1
16,CC(=O)Nc1ccc(C(=O)Nc2ccc3c(c2)OCCO3)cc1,5.37
17,CCN1CCN(C(=O)c2cc3cc(F)ccc3[nH]2)CC1,-40.5
18,CCCN(CCC(=O)Nc1cc(OC)cc(OC)c1)CC1CC1.Cl,3.78
19,O=C(Nc1nccs1)c1ccc([N+](=O)[O-])cc1Cl,11.3
20,O=C(Cn1nc([N+](=O)[O-])nc1Br)NC1CCCCC1,6.96
21,CC1CCC2(CC1)NC(=O)N(CC(=O)Nc1cccnc1Cl)C2=O (stereo not drawn),11.4
